# In PubChem BioAssay AID504332 (National Center for Advancing Translational Sciences (NCATS), 2011):
# The campaign covered roughly 350,000 compounds. About 31,000 (8.9%) were called active. The inconclusive results got no clear call from the source; some entries with a clear call stand among them for comparison. Calls follow the shape of the dose curve; as a rule, active = well fitted inhibition curve with a large enough effect; inconclusive = small, poorly fitted or top-dose-only effect; inactive = no such curve, though single readings can be large or run the other way. Where the call is inconclusive, the potency comes from a doubtful curve fit.
# Target: Histone-lysine N-methyltransferase EHMT2 (Homo sapiens) (UniProt Q96KQ7)
# Test: qHTS Assay for Inhibitors of Histone Lysine Methyltransferase G9a; also: nearly all actives have a fitted effect of over 75% in size
# Conditions: G9a H3K9 monomethylation, AlphaScreen, 2 h; activity, negative = inhibition: at 59 µM (top of the series) unless noted
# Outline: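 Readings reflect AlphaScreen signal from monomethyl-H3K9 antibody detection. HMT at 20 nM; substrate b-H3K9 500 nM; cofactor SAM 20 uM; 2 h RT reaction; compounds tested as titrations in qHTS with 15 min preincubation.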
# % is scaled to controls: 0 for no effect and ±100 for the full control effect; potency is read from the fitted curve at half-maximal effect; tags tell the direction and shape of the fitted curve.
# Chain of UniProt Q96KQ7 (Q96KQ7 whole entry, looked up): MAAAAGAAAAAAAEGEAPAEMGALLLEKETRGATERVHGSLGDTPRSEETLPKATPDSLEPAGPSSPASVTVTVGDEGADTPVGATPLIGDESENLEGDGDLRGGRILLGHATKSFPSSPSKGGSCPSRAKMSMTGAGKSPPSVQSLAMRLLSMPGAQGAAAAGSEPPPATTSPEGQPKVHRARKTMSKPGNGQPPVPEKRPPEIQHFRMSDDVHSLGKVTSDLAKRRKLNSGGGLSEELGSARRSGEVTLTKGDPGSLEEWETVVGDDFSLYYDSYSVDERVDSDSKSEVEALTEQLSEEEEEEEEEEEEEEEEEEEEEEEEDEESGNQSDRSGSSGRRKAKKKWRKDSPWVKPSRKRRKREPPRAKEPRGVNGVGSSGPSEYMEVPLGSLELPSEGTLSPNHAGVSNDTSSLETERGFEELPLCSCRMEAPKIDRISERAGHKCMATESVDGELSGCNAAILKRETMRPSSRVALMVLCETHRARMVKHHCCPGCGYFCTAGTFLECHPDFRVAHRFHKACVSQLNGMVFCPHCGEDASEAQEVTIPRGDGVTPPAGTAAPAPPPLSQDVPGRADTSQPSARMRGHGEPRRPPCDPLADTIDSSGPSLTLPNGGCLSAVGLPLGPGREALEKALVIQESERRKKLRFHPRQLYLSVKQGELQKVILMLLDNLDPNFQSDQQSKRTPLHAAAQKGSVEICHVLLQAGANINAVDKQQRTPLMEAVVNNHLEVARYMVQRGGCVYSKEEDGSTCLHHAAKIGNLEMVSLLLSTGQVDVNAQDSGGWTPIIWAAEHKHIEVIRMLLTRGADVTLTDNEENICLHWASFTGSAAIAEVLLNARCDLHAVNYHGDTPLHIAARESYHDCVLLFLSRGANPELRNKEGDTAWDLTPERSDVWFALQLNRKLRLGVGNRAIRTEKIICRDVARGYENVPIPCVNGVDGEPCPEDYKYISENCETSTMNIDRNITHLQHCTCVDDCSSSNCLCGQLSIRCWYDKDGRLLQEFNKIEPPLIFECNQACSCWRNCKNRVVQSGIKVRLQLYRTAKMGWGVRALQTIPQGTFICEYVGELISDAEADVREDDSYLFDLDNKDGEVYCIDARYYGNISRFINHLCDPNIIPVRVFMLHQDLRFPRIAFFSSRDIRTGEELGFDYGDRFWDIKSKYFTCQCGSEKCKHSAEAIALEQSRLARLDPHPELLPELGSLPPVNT
Structure (SMILES),Potency,"activity, negative = inhibition"
CCn1c(SCC(=O)Nc2cc(C)on2)nnc1-c1ccc(S(=O)(=O)N2CCN(C)CC2)cc1,"inconclusive: 28.2 µM [inhibitor, partial curve, poor fit]",–
COc1ccc(-c2cc3c(=O)n(CC(=O)Nc4ccc(C(C)=O)cc4)ncn3n2)cc1,–,inactive: 32.2% [at 102 µM]
CCC(c1nnnn1CCc1ccccc1)N(Cc1ccco1)Cc1cc2c(C)ccc(C)c2[nH]c1=O (stereo not given),"inconclusive: 28.2 µM [inhibitor, single point]",–
CCS(=O)(=O)c1ccccc1C(=O)NC1CCCc2ccccc21 (stereo not given),active: 39.8 µM,–
Cc1ccccc1C(=O)N1CCC(C(=O)Nc2ccccc2N2CCCC2)CC1,active: 50.1 µM,–
C/C=C/C=C/C(=O)OC(C)C(=O)Nc1cc([N+](=O)[O-])ccc1OC (stereo not given),"inconclusive: 89.1 µM [inhibitor, single point]",–
c1cnc(N2CCN(Cc3c[nH]c4ccccc34)CC2)nc1,"inconclusive: 89.1 µM [inhibitor, partial curve, poor fit]",–
C=C(C)[C@@H]1CCC2(C(=O)O)CC[C@]3(C)[C@H](CC[C@@H]4[C@@]5(C)CCC(=O)C(C)(C)[C@@H]5CC[C@]43C)[C@@H]12 (stereo not given in full),–,inactive: 2.58% [at 102 µM]
COc1cc(C2Nc3ccccc3C(=O)N2c2ccc3c(c2)OCCO3)ccc1OCC(C)C (stereo not given),–,inconclusive: -51.6% [inhibitor]
CC1(c2ccccc2Cl)NC(=O)N(CC(=O)Nc2cccnc2Cl)C1=O (stereo not given),–,inactive: -25.1% [at 102 µM]
CCN(c1ccccc1)S(=O)(=O)c1ccc(OC)c(NC(=O)Cc2ccc(F)cc2)c1,–,inactive: 15.6% [at 12.7 µM]
CC(C)c1ccc(-c2nc3ccccc3s2)cc1,–,inactive: 264% [at 102 µM]
C/C(=N\NC(=O)c1cccc(N/N=C(\C)c2ccc([N+](=O)[O-])cc2)c1)c1ccc([N+](=O)[O-])cc1,–,inconclusive: -83.7% [inhibitor]
CCc1ccccc1NC(=S)NN,"inconclusive: 10 µM [inhibitor, full curve]",–
c1cn2c(Nc3ccc4c(c3)OCCO4)c(-c3ccc(N4CCOCC4)cc3)nc2cn1,active: 50.1 µM,–
CCSc1nc(-c2ccc(Cl)cc2)nc2c1Cc1c(CO)cnc(C)c1O2,"inconclusive: 22.4 µM [inhibitor, partial curve, poor fit]",–
Cc1c(N=Cc2cc3c(cc2Cl)OCO3)c(=O)n(-c2ccccc2)n1C,"inconclusive: 20 µM [inhibitor, full curve]",–
O=C(CN1CCCCCCC1)N/N=C/c1ccc(F)c(F)c1,"inconclusive: 31.6 µM [inhibitor, single point]",–
O=C(O)c1ccccc1Nc1ccc([N+](=O)[O-])cc1,"inconclusive: 15.8 µM [inhibitor, single point]",–
Cc1onc(-c2ccccc2Cl)c1C(=O)Nc1ccc(S(=O)(=O)N2CCCC2)cc1,"inconclusive: 89.1 µM [inhibitor, single point]",–
Cc1sc(N)nc1-c1ccc2c(c1)OCCO2,active: 35.5 µM,–
CCOc1ccccc1OCC(=O)NCc1ccco1,"inconclusive: 3.16 µM [inhibitor, single point]",–
COC(=O)c1cc2c(ccn2-c2ccc(F)cc2)n1Cc1ccc(C#N)cc1,"inconclusive: 28.2 µM [inhibitor, partial curve, poor fit]",–

Structure (SMILES),Potency,"activity, negative = inhibition"
CCOC(=O)c1c(C)c(C(=O)Nc2ccc(N(C)C)cc2)c(C)n1CC,active: 2 µM,–
CN(C)c1ccc(/C=N/Nc2ccc(-n3ccnc3)nn2)cc1,"inconclusive: 3.16 µM [inhibitor, partial curve, poor fit]",–
O=[N+]([O-])c1ccc(N/N=C/c2sc(N3CCOCC3)nc2-c2ccccc2)c(S(=O)(=O)Nc2ccc(Cl)cc2)c1,active: 39.8 µM,–
CN(CCC#N)C(=O)CSc1nc2scc(-c3ccccc3)c2c(=O)[nH]1,"inconclusive: 79.4 µM [inhibitor, single point]",–
CC(=O)c1cccc(NC(=O)c2ccc(C(=O)Nc3cccc(C(C)=O)c3)nc2)c1,"inconclusive: 44.7 µM [inhibitor, partial curve]",–
O=C(NC(=S)NCC1CCCO1)c1ccccc1 (stereo not given),"inconclusive: 28.2 µM [inhibitor, single point]",–
COc1ccc(NC2CC(=O)N(c3cccc([N+](=O)[O-])c3)C2=O)cc1 (stereo not given),"inconclusive: 79.4 µM [inhibitor, single point]",–
Cc1ccc2nc(Cl)c(CN(C(=O)c3cnccn3)C3CCCCC3)cc2c1,–,inactive: 20.3% [at 0.0925 µM]
CC(=O)Nc1nnc(SCc2ccc(C(=O)Nc3ccccc3F)cc2)s1,active: 44.7 µM,–
COc1ccc(OCCC(=O)OCC(=O)NCc2ccco2)cc1,active: 15.8 µM,–
COc1ccc(-c2cn3c(C)c(C(=O)NCCN4CCOCC4)sc3n2)cc1,active: 39.8 µM,–
CCN(CC(=O)Nc1c(F)cccc1F)C(=O)c1nc2nccc(C)n2n1,–,inactive: -1.75%
COc1cccc(-c2[nH]nc3c2C(c2ccc(C)o2)C(C#N)=C(N)O3)c1 (stereo not given),"inconclusive: 8.91 µM [inhibitor, single point]",–
COc1cccc(-c2nnc(-c3ccco3)o2)c1,–,inactive: -8.3% [at 102 µM]
COCCNc1nnc(SCC(=O)NC(=O)c2ccccc2)s1,active: 50.1 µM,–
Cc1ccc(NC(c2nnc(-c3ccccc3)o2)c2ccccc2F)c([N+](=O)[O-])c1 (stereo not given),"inconclusive: 6.31 µM [inhibitor, full curve, poor fit]",–
C=CC(=O)NC(NC(=O)C=C)c1ccccc1F,–,inactive: 7.11% [at 102 µM]
O=C(NCc1ccccc1Cl)c1ccc(CSCc2cccc(F)c2)o1,–,inactive: 13.3%
CC(=O)N1[C@H](Cc2ccccc2)C=C[C@]1(C)C(=O)NCCc1c[nH]c2ccccc12,"inconclusive: 89.1 µM [inhibitor, single point]",–
CC1CCCN(S(=O)(=O)c2ccc(NC(=O)CN3CCN(C)CC3)cc2)C1 (stereo not given),"inconclusive: 31.6 µM [inhibitor, single point]",–
CCOC(=O)N1CCN(CC(O)COc2ccc(OC)cc2C(C)(C)C)CC1 (stereo not given),–,inactive: -1.82%
Cc1cccc(S(=O)(=O)N/N=c2\sc3ccccc3n2C)c1,"inconclusive: 79.4 µM [inhibitor, single point]",–
